# PubChem BioAssay AID588855 (National Center for Advancing Translational Sciences (NCATS), 2011)
# The campaign covered roughly 410,000 compounds. About 5,000 (1.2%) were called active. Inconclusive means that the source gave no clear call. Such entries were picked first, then a sample of the others. Calls come from the whole dose curve; as a rule, active = well fitted inhibition curve with a large enough effect; inconclusive = small, poorly fitted or top-dose-only effect; inactive = no such curve, though single readings can be large or run the other way. A potency beside an inconclusive call is a rough fit, not a confirmed value.
# Assay: qHTS for Inhibitors of TGF-b; note: nearly all actives have a fitted effect of over 65% in size
# Conditions: HepG2 CAGA-GFP TGF-b/SMAD3 reporter, GFP fluorescence, 18 h, TGF-beta stimulated, 500 pg/mL final; series mostly up to 46.1 µM
# In short: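 GFP signal (ex488/em500-530) from TGF-beta-stimulated HEPG2 CAGA-GFP cells, 500 pg/mL final, 18 h at 37 degrees C in DMEM plus 1% FBS, normalized to unstimulated and DMSO-stimulated controls.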
# Potency is the fitted concentration of half-maximal effect; tags give direction and shape of the fitted curve.
row,Compound,Potency
1,CN(C)c1cc(-c2ccccc2)nc(N)n1,inactive
2,CNC(=S)NCCN1CCOCC1,"inconclusive: 3.55 µM [inhibitor, single point]"
3,COC(=O)c1ccc(C(=O)NC2CCSc3ccccc32)cc1 (stereo not drawn),inactive
4,N#Cc1ccc(C23OCCN2CCn2c3c3ccccc3[n+]2[O-])cc1 (stereo not drawn),"inconclusive: 20 µM [inhibitor, single point]"
5,C=C1C(=O)O[C@@]23[C@H]1CC[C@@H](C)[C@@H]2CC[C@@]1(C)O[C@@H]31,"inconclusive: 14.1 µM [inhibitor, partial curve, poor fit]"
6,O=C(CSCc1ccccc1)NNc1c(F)c(F)cc(F)c1F,inactive
7,C=CC[n+]1ccnc2ccccc21,"inconclusive: 5.62 µM [inhibitor, single point]"
8,Cc1ccccc1NC(=S)NCc1ccc2c(c1)cc(C)n2C,active: 11.2 µM
9,COc1ccc(C(=O)NCc2nc(C)c(C)s2)cc1OC1CCN(C(C)C)CC1,inactive
10,COc1ccccc1N(C)S(=O)(=O)c1ccc(C(=O)N(C)Cc2ccc(Cl)s2)cc1,"inconclusive: 35.5 µM [inhibitor, single point]"
11,CN(C)c1ccc(NC(=O)CN2CCN(S(=O)(=O)c3cc(Cl)ccc3Cl)CC2)cc1,"inconclusive: 6.31 µM [inhibitor, single point]"
12,CCCc1nc2ccccc2c(C(=O)OCC(=O)Nc2cccc(S(=O)(=O)N3CCOCC3)c2)c1CC,"inconclusive: 20 µM [inhibitor, single point]"
13,CCOc1ccc(N=C2SC(C(=O)Nc3ccccc3C#N)C(N)=C2C(=O)Nc2ccc(Cl)cc2)cc1 (stereo not drawn),"inconclusive: 22.4 µM [inhibitor, single point]"
14,O=C(NCc1ccco1)c1ccc(-c2ccc3nccn3c2)cc1,inactive
15,Cc1cc2nc(-c3ccc(SCC(=O)Nc4ccc(S(=O)(=O)NC5CC5)cc4)nc3)[nH]c2cc1C,"inconclusive: 15.8 µM [inhibitor, single point]"
16,CCCOc1ccc(NC(=O)CC2C(=O)Nc3ccccc3N2CC(=O)N2CCCC2)cc1 (stereo not drawn),"inconclusive: 35.5 µM [inhibitor, single point]"
17,CC(=Nc1ccc2c(c1)nc(CO)n2C)C1=C(O)CC(C)(C)CC1=O,"inconclusive: 0.224 µM [inhibitor, full curve, poor fit]"
18,COc1ccc(C2SCCN2C(=S)Nc2ccc(Cl)cc2)cc1 (stereo not drawn),"inconclusive: 15.8 µM [inhibitor, single point]"
19,Cc1ccc(C(=O)Nc2ccc(S(=O)(=O)NCc3ccco3)cc2)cc1,inactive
20,Cc1nn(-c2ccc(N3CCOCC3)nn2)c(C)c1CCC(=O)Nc1ccc(F)cc1F,inactive
21,O=C(NCCC1=CCCCC1)C1CCN(S(=O)(=O)c2cccc(C(F)(F)F)c2)CC1,"inconclusive: 35.5 µM [inhibitor, single point]"
22,CCSC1=C(C#N)C(c2ccc(Cl)cc2)C2=C(CCCC2=O)N1 (stereo not drawn),"inconclusive: 35.5 µM [inhibitor, single point]"

row,Compound,Potency
1,c1ccc(-c2nc3c4ccccc4ccn3c2Cc2ccsc2)cc1,"inconclusive: 17.8 µM [inhibitor, single point]"
2,CCOc1cc(/C=N\NC(N)=O)cc(Br)c1OC(C)C,"inconclusive: 35.5 µM [inhibitor, single point]"
3,COCCn1c(N)c(C(=O)NCc2cccs2)c2nc3ccccc3nc21,"inconclusive: 15.8 µM [inhibitor, single point]"
4,Cc1ccc(/C=C/c2nc3ccccc3c(=O)n2CCc2ccccc2)cc1,inactive
5,COc1ccc(-c2cc(C)no2)cc1S(=O)(=O)N1CCOc2ccc(Cl)cc21,inactive
6,COc1ccc(Nc2cc(C(=O)NCCCN(C)C3CCCCC3)c3ccccc3n2)c(OC)c1,"inconclusive: 35.5 µM [inhibitor, single point]"
7,COC(=O)c1ccc2c(=O)n(CCCCCC(=O)NCc3ccc(OC)cc3)c(=O)[nH]c2c1,"inconclusive: 0.316 µM [inhibitor, full curve, poor fit]"
8,O=C1CSC(=S)N1Cc1cccs1,"inconclusive: 25.1 µM [inhibitor, single point]"
9,CC(C)c1ccc(NC(=O)CN2C(=O)COc3ccc(S(=O)(=O)N4CCOCC4)cc32)cc1,"inconclusive: 1.58 µM [inhibitor, partial curve, poor fit]"
10,CC(C)COc1ccc(CNC(=S)N/N=C/c2ccc([N+](=O)[O-])cc2)cc1,inactive
11,CCCn1c2ccccc2c2cnn(CC(=O)NCCCN(Cc3ccccc3)C(C)C)c(=O)c21,"inconclusive: 15.8 µM [inhibitor, single point]"
12,Cc1cccc(-c2noc(-c3c(C)noc3C)n2)c1,inactive
13,COc1cc(/C=C/C(=O)OCC(=O)N2CCC(Cc3ccccc3)CC2)ccc1O,"inconclusive: 22.4 µM [inhibitor, single point]"
14,C=CCn1c(-c2cccn(Cc3cccc(Cl)c3)c2=O)n[nH]c1=S,inactive
15,COc1cc(N(Cc2ccccc2)Cc2ccccc2)c2ncn(C(C)C)c2c1,"inconclusive: 0.708 µM [inhibitor, full curve, poor fit]"
16,O=c1[nH]c2ccccc2c2oc(CCl)nc12,"inconclusive: 35.5 µM [inhibitor, single point]"
17,O=C1c2ccsc2SCCN1Cc1cccc(Cl)c1,"inconclusive: 35.5 µM [inhibitor, single point]"
18,O=C1C=C(NCCc2cc(Br)c(O)c(Br)c2)C(=O)c2ncccc21,"inconclusive: 3.55 µM [inhibitor, full curve, poor fit]"
19,COc1ccc(C(=O)N2CCN(c3ccc([N+](=O)[O-])c(-n4nc(C)cc4C)c3)CC2)cc1,"inconclusive: 12.6 µM [inhibitor, partial curve, poor fit]"
20,COC(=O)[C@H](CC(C)C)NC(=O)CC[C@H]1O[C@@H](n2cc(C)c(=O)[nH]c2=O)C[C@@H]1O,"inconclusive: 35.5 µM [inhibitor, single point]"
21,COc1ccc(Nc2ccc(S(=O)(=O)N3CCCCC3)cc2[N+](=O)[O-])cc1OC,"inconclusive: 35.5 µM [inhibitor, single point]"
